This note sets out measurements from the supplement of paper PMC12217912.

B1: TEV protease; numbered along this chain (parent)
chain: MGESLFKGPRDYNPISSSICHLTNESDGHTTSLYGIGFGPFIITNKHLFRRNNGTLVVQSLHGVFKVKDTTTLQQHLVDGRDMIIIRMPKDFPPFPQKLKFREPQREERICLVTTNFQTKSMSSMVSDTSCTFPSGDGIFWKHWIQTKDGQCGSPLVSTRDGFIVGIHSASNFTNTNNYFTSVPKNFMELLTNQEAQQWVSGWRLNADSVLWGGHKVFMVKPEEPFQPVKEATQL

Variants of B1 are the subject of the assay. In words: raw area under fraction-flipped curve 0-4 h after induction (AUC4h, not background-subtracted), DNA-recorder readout of cleavage of the substrate (dimensionless); higher = more cleavage of the substrate by the protease variant. As to conditions: temperature: 34 °C; time window: 0-4 h after rhamnose induction. As to the method: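 In vivo DNA recorder in E. coli TOP10(DE3) ΔrhaA at 34 °C. Each TEVp single-site mutant (parent TEVp 0) is paired with a single-site variant of the 7-mer TEVs (canonical ENLYFQ|S). The substrate sits between flexible linkers in a Bxb1-sfGFP-TEVs-SsrA fusion, so cleavage stabilises Bxb1 and speeds flipping of a recombination array, read by NGS. The value is the raw area under the fraction-flipped curve over 0-4 h after rhamnose induction (AUC4h), with ≥20 reads per time point. It is not background-subtracted; inactive controls average about 0.047.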

This is one part of the list. The full chains were built here from the parent and the listed change. Values near 0.05 are background.
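Also: Bxb1 expression induced with 0.2% (w/v) L-rhamnose at OD600 near 0.5, cultures sampled hourly, flipped fraction per protease–substrate barcode pair counted by paired-end Illumina sequencing.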

Consider MGESLFKGPRDYNPISSSICHLTNESDGHTTSLYGIGFGPFIITNKHLFRRNNGTLVVQSLHGVFKVKDTTTLQQHLVDGRDMIIIRMPKDFPPFPQKLKFREPQREERICLVTTNFQTKSMSSMVCDTSCTFPSGDGIFWKHWIQTKDGQCGSPLVSTRDGFIVGIHSASNFTNTNNYFTSVPKNFMELLTNQEAQQWVSGWRLNADSVLWGGHKVFMVKPEEPFQPVKEATQL [S127C], for which the “area with substrate ENAYFQS” value amounted to 0.0628, the “area with substrate ENCYFQS” value came to 0.0648, the “area with substrate ENDYFQS” value came to 0.0589 and the “area with substrate ENEYFQS” value was 0.0626. The “area with substrate ENFYFQS” value is 0.0669, the “area with substrate ENGYFQS” value was 0.0564, the “area with substrate ENKYFQS” value turned out to be 0.0642 and the “area with substrate ENNYFQS” value was found to be 0.0691. In addition, the “area with substrate ENPYFQS” value turned out to be 0.0566, the “area with substrate ENQYFQS” value turned out to be 0.0609, the “area with substrate ENRYFQS” value came to 0.0573 and the “area with substrate ENSYFQS” value amounted to 0.0654. Moreover, the “area with substrate ENTYFQS” value worked out at 0.0627, the “area with substrate ENVYFQS” value was 0.0849, the “area with substrate ENWYFQS” value is 0.0043 and the “area with substrate ENYYFQS” value amounted to 0.057.

On to MGESLFKGPRDYNPISSSICHLTNESDGHTTSLYGIGFGPFIITNKHLFRRNNGTLVVQSLHGVFKVKDTTTLQQHLVDGRDMIIIRMPKDFPPFPQKLKFREPQREERICLVTTNFQTKSMSSMVWDTSCTFPSGDGIFWKHWIQTKDGQCGSPLVSTRDGFIVGIHSASNFTNTNNYFTSVPKNFMELLTNQEAQQWVSGWRLNADSVLWGGHKVFMVKPEEPFQPVKEATQL [S127W], for which the “area with substrate ENAYFQS” value stood at 0.0568, the “area with substrate ENCYFQS” value was 0.0707, the “area with substrate ENDYFQS” value was 0.0637 and the “area with substrate ENGYFQS” value was determined as 0.0435. The “area with substrate ENNYFQS” value amounted to 0.0785, the “area with substrate ENQYFQS” value was 0.0582, the “area with substrate ENRYFQS” value was found to be 0.0657 and the “area with substrate ENSYFQS” value is 0.0555. Moreover, the “area with substrate ENVYFQS” value was 0.053 and the “area with substrate ENWYFQS” value is 0.0304.

As for MGESLFKGPRDYNPISSSICHLTNESDGHTTSLYGIGFGPFIITNKHLFRRNNGTLVVQSLHGVFKVKDTTTLQQHLVDGRDMIIIRMPKDFPPFPQKLKFREPQREERICLVTTNFQTKSMSSMVQDTSCTFPSGDGIFWKHWIQTKDGQCGSPLVSTRDGFIVGIHSASNFTNTNNYFTSVPKNFMELLTNQEAQQWVSGWRLNADSVLWGGHKVFMVKPEEPFQPVKEATQL [S127Q], the “area with substrate ENAYFQS” value stood at 0.0544, the “area with substrate ENCYFQS” value stood at 0.0654, the “area with substrate ENDYFQS” value worked out at 0.0627 and the “area with substrate ENEYFQS” value came to 0.05. Also, the “area with substrate ENIYFQS” value came to 0.0664, the “area with substrate ENNYFQS” value is 0.0676, the “area with substrate ENPYFQS” value was 0.0574 and the “area with substrate ENQYFQS” value stood at 0.0638. For the same variant, the “area with substrate ENSYFQS” value amounted to 0.056, the “area with substrate ENTYFQS” value amounted to 0.0621, the “area with substrate ENVYFQS” value came out at 0.0689 and the “area with substrate ENWYFQS” value worked out at 0.0475. Also, the “area with substrate ENYYFQS” value came out at 0.0621.

Take MGESLFKGPRDYNPISSSICHLTNESDGHTTSLYGIGFGPFIITNKHLFRRNNGTLVVQSLHGVFKVKDTTTLQQHLVDGRDMIIIRMPKDFPPFPQKLKFREPQREERICLVTTNFQTKSMSSMVSDTSVTFPSGDGIFWKHWIQTKDGQCGSPLVSTRDGFIVGIHSASNFTNTNNYFTSVPKNFMELLTNQEAQQWVSGWRLNADSVLWGGHKVFMVKPEEPFQPVKEATQL [C131V]: the “area with substrate ENAYFQS” value was 0.0702, the “area with substrate ENDYFQS” value was determined as 0.0563, the “area with substrate ENEYFQS” value was determined as 0.0382 and the “area with substrate ENGYFQS” value worked out at 0.0747. The “area with substrate ENKYFQS” value is 0.052, the “area with substrate ENNYFQS” value turned out to be 0.0682, the “area with substrate ENRYFQS” value was 0.0629 and the “area with substrate ENYYFQS” value worked out at 0.0455.

Regarding MGESLFKGPRDYNPISSSICHLTNESDGHTTSLYGIGFGPFIITNKHLFRRNNGTLVVQSLHGVFKVKDTTTLQQHLVDGRDMIIIRMPKDFPPFPQKLKFREPQREERICLVTTNFQTKSMSSMVSDTSCTFPSGDKIFWKHWIQTKDGQCGSPLVSTRDGFIVGIHSASNFTNTNNYFTSVPKNFMELLTNQEAQQWVSGWRLNADSVLWGGHKVFMVKPEEPFQPVKEATQL [G138K], the “area with substrate ENAYFQS” value is 0.0613, the “area with substrate ENCYFQS” value is 0.0593, the “area with substrate ENDYFQS” value was 0.0662 and the “area with substrate ENKYFQS” value came to 0.0532. Moreover, the “area with substrate ENPYFQS” value worked out at 0.0623, the “area with substrate ENQYFQS” value came out at 0.0728, the “area with substrate ENSYFQS” value was found to be 0.0711 and the “area with substrate ENVYFQS” value is 0.0625. The “area with substrate ENYYFQS” value came out at 0.0649.

On to MGESLFKGPRDYNPISSSICHLTNESDGHTTSLYGIGFGPFIITNKHLFRRNNGTLVVQSLHGVFKVKDTTTLQQHLVDGRDMIIIRMPKDFPPFPQKLKFREPQREERICLVTTNFQTKSMSSMVSDTSCTFPSGDSIFWKHWIQTKDGQCGSPLVSTRDGFIVGIHSASNFTNTNNYFTSVPKNFMELLTNQEAQQWVSGWRLNADSVLWGGHKVFMVKPEEPFQPVKEATQL [G138S], for which the “area with substrate ENAYFQS” value was 0.0658, the “area with substrate ENCYFQS” value worked out at 0.0677, the “area with substrate ENEYFQS” value was found to be 0.0674 and the “area with substrate ENGYFQS” value was 0.0786. The “area with substrate ENKYFQS” value was found to be 0.0622, the “area with substrate ENNYFQS” value is 0.066, the “area with substrate ENQYFQS” value came out at 0.0672 and the “area with substrate ENTYFQS” value amounted to 0.0647. The “area with substrate ENVYFQS” value amounted to 0.0612.

Turning to MGESLFKGPRDYNPISSSICHLTNESDGHTTSLYGIGFGPFIITNKHLFRRNNGTLVVQSLHGVFKVKDTTTLQQHLVDGRDMIIIRMPKDFPPFPQKLKFREPQREERICLVTTNFQTKSMSSMVSDTSCTRPSGDGIFWKHWIQTKDGQCGSPLVSTRDGFIVGIHSASNFTNTNNYFTSVPKNFMELLTNQEAQQWVSGWRLNADSVLWGGHKVFMVKPEEPFQPVKEATQL [F133R], the “area with substrate ENAYFQS” value turned out to be 0.065, the “area with substrate ENCYFQS” value is 0.074, the “area with substrate ENDYFQS” value was found to be 0.0524 and the “area with substrate ENEYFQS” value was 0.0579. For the same variant, the “area with substrate ENFYFQS” value came out at 0.0605, the “area with substrate ENGYFQS” value is 0.0347, the “area with substrate ENKYFQS” value was 0.066 and the “area with substrate ENMYFQS” value stood at 0.0897. Moreover, the “area with substrate ENNYFQS” value was 0.0695, the “area with substrate ENPYFQS” value is 0.0738, the “area with substrate ENQYFQS” value is 0.0491 and the “area with substrate ENRYFQS” value is 0.0588. Also, the “area with substrate ENSYFQS” value is 0.0679, the “area with substrate ENTYFQS” value came out at 0.0679 and the “area with substrate ENYYFQS” value worked out at 0.0645.

Turning to MGESLFKGPRDYNPISSSICHLTNESDGHTTSLYGIGFGPFIITNKHLFRRNNGTLVVQSLHGVFKVKDTTTLQQHLVDGRDMIIIRMPKDFPPFPQKLKFREPQREERICLVTTNFQTKSMSSMVSDTSCTHPSGDGIFWKHWIQTKDGQCGSPLVSTRDGFIVGIHSASNFTNTNNYFTSVPKNFMELLTNQEAQQWVSGWRLNADSVLWGGHKVFMVKPEEPFQPVKEATQL [F133H], the “area with substrate ENAYFQS” value was 0.0661, the “area with substrate ENDYFQS” value was 0.0533, the “area with substrate ENFYFQS” value was 0.0574 and the “area with substrate ENIYFQS” value came to 0.128. Also, the “area with substrate ENKYFQS” value was 0.0531, the “area with substrate ENMYFQS” value was 0.0754, the “area with substrate ENQYFQS” value was 0.0569 and the “area with substrate ENSYFQS” value is 0.0692. Moreover, the “area with substrate ENTYFQS” value was 0.0704 and the “area with substrate ENWYFQS” value turned out to be 0.0637.

For MGESLFKGPRDYNPISSSICHLTNESDGHTTSLYGIGFGPFIITNKHLFRRNNGTLVVQSLHGVFKVKDTTTLQQHLVDGRDMIIIRMPKDFPPFPQKLKFREPQREERICLVTTNFQTKSMSSMVSDTSCTFNSGDGIFWKHWIQTKDGQCGSPLVSTRDGFIVGIHSASNFTNTNNYFTSVPKNFMELLTNQEAQQWVSGWRLNADSVLWGGHKVFMVKPEEPFQPVKEATQL [P134N], the “area with substrate ENAYFQS” value stood at 0.0551, the “area with substrate ENCYFQS” value amounted to 0.0434, the “area with substrate ENFYFQS” value came out at 0.0915 and the “area with substrate ENKYFQS” value was found to be 0.0516. For the same variant, the “area with substrate ENPYFQS” value was found to be 0.0765, the “area with substrate ENQYFQS” value was 0.0612, the “area with substrate ENRYFQS” value was found to be 0.0024 and the “area with substrate ENSYFQS” value amounted to 0.0652. For the same variant, the “area with substrate ENTYFQS” value was found to be 0.0619, the “area with substrate ENVYFQS” value came to 0.0692 and the “area with substrate ENYYFQS” value was found to be 0.0594.

Regarding MGESLFKGPRDYNPISSSICHLTNESDGHTTSLYGIGFGPFIITNKHLFRRNNGTLVVQSLHGVFKVKDTTTLQQHLVDGRDMIIIRMPKDFPPFPQKLKFREPQREERICLVTTNFQTKSMSSMVSDTSCTFVSGDGIFWKHWIQTKDGQCGSPLVSTRDGFIVGIHSASNFTNTNNYFTSVPKNFMELLTNQEAQQWVSGWRLNADSVLWGGHKVFMVKPEEPFQPVKEATQL [P134V], the “area with substrate ENAYFQS” value turned out to be 0.052, the “area with substrate ENCYFQS” value is 0.0639, the “area with substrate ENDYFQS” value was 0.0618 and the “area with substrate ENEYFQS” value worked out at 0.0583. For the same variant, the “area with substrate ENFYFQS” value is 0.059, the “area with substrate ENHYFQS” value was found to be 0.0564, the “area with substrate ENIYFQS” value came out at 0.0879 and the “area with substrate ENKYFQS” value was 0.0553. The “area with substrate ENNYFQS” value is 0.0718, the “area with substrate ENQYFQS” value came to 0.0627, the “area with substrate ENSYFQS” value was determined as 0.0501 and the “area with substrate ENTYFQS” value worked out at 0.0627. Further, the “area with substrate ENVYFQS” value was found to be 0.0615 and the “area with substrate ENYYFQS” value turned out to be 0.0558.
